The whole screen tested about 150,000 compounds, of which about 540 (0.36%) showed an effect of 50% or more. Some of the results follow.

This assay relates to Plasmodium falciparum. Nature of the assay: Primary screen in NF54 nanoGlo assay, in single point, at 2uM, 72h; a lower Z score goes with more inhibition. The assay is classed as functional, Erythrocyte. To be noted: timepoint 72 hour.
With `C[C@H](NC(=O)NCCCN(C)c1ccccc1)[C@H](O)c1ccc(O)cc1`, the % Inhibition (usually the relative decrease from the control value, in per cent) is given as -14% and the Z score was found to be 2.57.
For `CS(=O)(=O)NCc1ncnn1-c1cccc2c1CCC2`, in that order: -16% and 1.93.
For `Cc1ccc(S(=O)(=O)OCC2CCN(C(=O)OC(C)(C)C)CC2)cc1` the same measures were -6% and 0.69.
For `CC12CCC(C(=O)Nc3ccc4c(c3)OCCO4)(C(=O)C1=O)C2(C)C` (centres undefined) the same measures were 8% and -1.1.
In the case of `O=C1NC(c2ccc(-c3cccc(Cl)c3)o2)C(C(=O)c2ccc(F)cc2)C(O)(C(F)(F)F)N1` (centres undefined), the “% Inhibition” value is -12% and the Z score turned out to be 2.31.
For `CCCCN1CCN(C[C@H]2COc3ccccc3O2)CC1` the same measures were -5% and 1.04.
`COc1ccc(Cn2nnc(C(=O)N3CCNC(C)(C)C3)c2C)cc1`: the “% Inhibition” value came to 12% and the Z score was -2.01.
For `Cn1cc(-c2cccc(NC(=O)N3C[C@@H]4CCS(=O)(=O)[C@@H]4C3)n2)cn1`, in that order: 35% and -3.98.
For `COc1ccccc1[C@H]1CCC[C@@H](C)N1CC(O)CN1CCCC1=O` (some centres undefined) the same measures were -9% and 1.35.
For `O=C(NCC(=O)N1CCCC1)c1ccccn1`, in that order: 8% and -1.1.
As to `Cc1cc(C)nc(N2CCN(c3cccs3)CC2)n1`, the “% Inhibition” value is reported as -12% and the Z score came out at 1.19.
For `Cn1cnnc1N1CCN(C(=O)NCc2ccncc2OCC(F)F)CC1`, in that order: 0% and 0.
On to `Cc1nc(C(=O)N2CCNC[C@H]2c2ccncc2)c(C)s1`, for which the “% Inhibition” value is on record as -10% and the Z score is recorded as 1.06.
For `Cc1ccc(Cc2nc(N3CCN(C(=O)c4ccccc4Cl)CC3)c3c(C)nn(-c4ccc(F)cc4)c3n2)cc1`, in that order: -12% and 1.65.
For `COc1c(F)cc(-c2ccc(C(=O)N(C)C3CCOCC3)cc2)cc1F`, in that order: 3% and -0.38.
As for `CCCCOC(=O)Nc1nnc(CC(=O)NCc2ccccc2)s1`, the “% Inhibition” value is listed as -9% and the Z score was found to be 1.73.
Turning to `c1nnnn1CCc1nc(C2CC2)n[nH]1`, the “% Inhibition” value is on record as -11% and the Z score was 1.8.
On to `O=C(NS(=O)(=O)Oc1ccc(F)cc1F)OC[C@@H]1CCCN2CCCCC12` (some centres undefined), for which the “% Inhibition” value stood at 3% and the Z score is reported as -0.35.
For `CC(C)(C)OC(=O)N=C(NC(=O)OC(C)(C)C)n1cccn1` the same measures were -17% and 1.44.
For `COc1cc2c(cc1OC)CN(C(=O)C[C@@H]1NC(=O)N(Cc3ccc(Cl)cc3)C1=O)CC2`, in that order: -12% and 1.48.
For `O=C1CO[C@H]2CN(C3CCCCC3)C[C@H]2N1c1ccccc1` the same measures were 4% and -0.51.
Regarding `O=C(Cn1nc(-c2ccccc2)cc(NC(=O)c2ccccc2)c1=O)Nc1cccc(F)c1`, the “% Inhibition” value is listed as -4% and the Z score is on record as 0.68.
In the case of `CCC1(C(=O)N2CCCC(COC)C2)CCCN1` (centres undefined), the “% Inhibition” value was -12% and the Z score is recorded as 1.68.
For `COc1cc(CN)ccc1OC(C)(C)C` the same measures were 2% and -0.36.
For `CCC(=O)N1CCCC[C@H]1c1nnc2n1CCN(S(=O)(=O)c1cccnc1)CC2` the same measures were 13% and -1.88.
For `COCCn1nnnc1[C@]1(N2CCCC2)CCN(C(=O)c2ccc3ncccc3c2)C1` the same measures were -2% and 0.29.
For `CC(C)C1CCN1C(=O)CC1CN(C(=O)c2ccco2)CCS1(=O)=O` (centres undefined), the “% Inhibition” value is 0% and the Z score came out at 0.01.
For `CC[C@@H](NC(=O)N1CCc2nc(C)[nH]c(=O)c2CC1)c1ccccc1`, in that order: -7% and 0.92.
For `O=C(Nc1nncs1)[C@@H]1CCCCS1(=O)=O`, in that order: -8% and 0.76.
For `CCCOc1ccc(N2C(=O)C3ON(c4ccccc4)C(CC(C)C)C3C2=O)cc1` (centres undefined), in that order: 1% and -0.06.
`COc1ccccc1OCc1nc(C2CC2)n(C(C)(C)C)n1`: the “% Inhibition” value was -2% and the Z score was 0.39.
As to `COc1ncccc1C(=O)NCC1CC1`, the “% Inhibition” value is 0% and the Z score is on record as -0.01.
Regarding `CC(C)CN(CC(C)C)C(=O)[C@@H]1CCCO1`, the “% Inhibition” value is -3% and the Z score is given as 0.34.
In the case of `Cc1cc(NC(=O)Cn2ncc3cccnc32)n(C2CCCC2)n1`, the “% Inhibition” value was determined as 1% and the Z score was -0.1.
For `O=C(NCC(c1ccco1)N1CCCC1)N1CCCC(c2nc3ccccc3s2)C1` (centres undefined) the same measures were 2% and -0.3.
For `Cc1ccc2c(c1)OCCN2S(=O)(=O)c1cnnn1C`, in that order: -8% and 0.84.
For `COc1ccc(C(=O)N2CC(=O)N3C[C@@H](OC)C[C@H]3C2)cn1` the same measures were -17% and 2.59.
For the molecule `O=C(CCn1c(Cc2ccccc2Cl)nc2cc(Cl)c(Cl)cc21)NCCN1CCOCC1`, the “% Inhibition” value is reported as -6% and the Z score came to 1.07.
As for `Fc1ccc(-c2nnc(CN3CCCC4(C3)OCCO4)o2)cc1`, the “% Inhibition” value was 0% and the Z score is on record as 0.
For `CN(CC(C)(CO)CO)C(=O)c1cc(C2CCCCC2)n[nH]1`, in that order: 4% and -0.45.
For `CO[C@H]1C[C@@H](CO)N(S(=O)(=O)c2c(Cl)cc(C)c(O)c2C)C1` the same measures were -3% and 0.64.
Take `C[C@H]1CCC[C@@H](C(=O)O)N1C(=O)OC(C)(C)C`: the “% Inhibition” value is -17% and the Z score came to 1.7.

For the origin of these results see ChEMBL document CHEMBL4888484, “Replenishing the malaria drug discovery pipeline: Screening and hit evaluation of the MMV Hit Generation Library 1 (HGL1) against asexual blood stage Plasmodium falciparum ,using a nano luciferase reporter read-out” (2022).
